This list was built around the results that the source calls inconclusive (neither active nor inactive); the mix of calls is not that of the screen. For part of these data: A potency beside an inconclusive call is a rough fit, not a confirmed value. Calls of active or inactive are those of the source. Unless noted, the call rests on the fitted dose curve; in most records, active means well fitted curve in the direction sought with a large enough effect; inconclusive means small, poorly fitted or top-dose-only effect, or another doubt; inactive means no such curve, though single readings can be large; an effect the other way counts as inactive or inconclusive.
Columns and labels:
[1] = qHTS of pediatric cancer cell lines to identify multiple opportunities for drug repurposing: Primary screen for SJ-GBM2 cells (AID 1347091)
In short: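 Eight- or eleven-point concentration series, 48 h treatment at 37 degrees C in growth media; readout CellTiter-Glo luminescence. Potency and efficacy were taken from the concentration-response curves.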

[2] = qHTS of pediatric cancer cell lines to identify multiple opportunities for drug repurposing: Primary screen for SK-N-MC cells (AID 1347093); settings: SK-N-MC viability, CellTiter-Glo luminescence, 48 h; activity change, negative = cytotoxic: at 46 µM (top of the series)
In short: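 Metabolically active cells were quantified by ATP-dependent luminescence (CellTiter-Glo, 15 min at room temperature) following 48 h treatment. Cells had been plated at 500-1,000 per well and settled for 5 h beforehand.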

[3] = qHTS of pediatric cancer cell lines to identify multiple opportunities for drug repurposing: Primary screen for Saos-2 cells (AID 1347097); further: nearly all actives have a fitted effect of over 40% in size
In short: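 Quantitative HTS format: each compound titrated (MIPE 11 points from 0.78 nM, NPC 8 points from 0.59 nM) onto cells plated 5 hours earlier. After 48 h at 37 degrees C, CellTiter-Glo luminescence was recorded.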

[4] = qHTS of pediatric cancer cell lines to identify multiple opportunities for drug repurposing: Confirmatory screen for NB-EBc1 cells (AID 1347115); settings: NB-EBc1 neuroblastoma cells, viability (cytotoxicity); activity change, negative = cytotoxic: at 45.9 µM (top of the series);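 further: cells exposed to compound for 48 h before the viability read; nearly all actives have a fitted effect of over 45% in size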
In short: (§1)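 Cells (500-1,000/well) in growth media were settled 5 h at 37 degrees C, then given compounds for 48 h. Viability was read as CellTiter-Glo luminescence. Primary runs used MIPE at 11 points (0.78 nM-46 µM) and NPC at 8 points (0.59 nM-46 µM); follow-ups used 11 points.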

[5] = biological target: Cytochrome P450 2C9 (Homo sapiens) (UniProt P11712); assay: Cytochrome P450 family 2 subfamily C member 9 (CYP2C9) small molecule antagonists: luciferase biochemical (cell-free) qHTS assay (AID 1645842; active means well fitted curve in the direction sought with a large enough effect in the repeat runs; inconclusive means weak or mixed curves; inactive means no such curve, though single readings can be large; an effect the other way counts as inactive or inconclusive; further: nearly all actives have a fitted effect of over 55% in size)
In short: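 P450-Glo CYP2C9 system: proluciferin substrate with enzyme in mix containing 0.4% BSA, 10 min at room temperature, then NADPH regeneration solution added and incubated 1 h at 37C. Detection reagent stopped reaction; luminescence read after 20 min as RLU.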

[6] = Quantitative High-Throughput drug screen in 47 multiple myeloma cell lines against the NCATS MIPE library collection: Delta47_JCRB cell viability assay (AID 1918925; further: nearly all actives have a fitted effect of over 45% in size); settings: Delta47 myeloma viability, CellTiter-Glo ATP, 48 h; series mostly up to 45.8 µM
In short: (§2)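 Luminescent ATP measurement with CellTiter-Glo gives viability, scaled between DMSO-only wells (100%) and media-only wells (0%). Cells, 500 per well, faced library compounds for 48 hours at 37C.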

[7] = Quantitative High-Throughput drug screen in 47 multiple myeloma cell lines against the NCATS MIPE library collection: H1112_PLB cell viability assay (AID 1918967; further: nearly all actives have a fitted effect of over 30% in size)
In short: as §2

[8] = Quantitative High-Throughput drug screen in 47 multiple myeloma cell lines against the NCATS MIPE library collection: MMM1_PLB cell viability assay (AID 1918976); further: nearly all actives have a fitted effect of over 35% in size
In short: (§3)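 Readout: median RLU from CellTiter-Glo after 5 min at room temperature. Preceding step was 48 h drug treatment of 500 cells/well at 37 °C, 5% CO2, with DMSO-only and media-only control wells.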

[9] = Quantitative High-Throughput drug screen in 47 multiple myeloma cell lines against the NCATS MIPE library collection: MM1R_ATCC cell viability assay (AID 1918981); further: nearly all actives have a fitted effect of over 35% in size
In short: as §3

[10] = Quantitative High-Throughput drug screen in 47 multiple myeloma cell lines against the NCATS MIPE library collection: SKMM1_PLB cell viability assay (AID 1919863); settings: SKMM1 myeloma viability, CellTiter-Glo ATP, 48 h; viability: active compounds read low; further: nearly all actives have a fitted effect of over 35% in size
In short: as §3

[11] = Quantitative High-Throughput drug screen in 47 multiple myeloma cell lines against the NCATS MIPE library collection: RPMI8226_ATCC cell viability assay (AID 1919871); further: nearly all actives have a fitted effect of over 30% in size
In short: as §3

[12] = Quantitative High-Throughput drug screen in 47 multiple myeloma cell lines against the NCATS MIPE library collection: KMS28BM_JCRB cell viability assay (AID 1919874); further: nearly all actives have a fitted effect of over 35% in size
In short: as §3

[13] = qHTS of pediatric cancer cell lines to identify multiple opportunities for drug repurposing: Primary screen for control Hh wild type fibroblast cells (AID 1347106); further: nearly all actives have a fitted effect of over 55% in size
In short: as §1

[14] = Quantitative High-Throughput drug screen in 47 multiple myeloma cell lines against the NCATS MIPE library collection: U266_ATCC cell viability assay (AID 1919864); further: nearly all actives have a fitted effect of over 35% in size
In short: as §3

[15] = test system: MKL-2; assay: qHTS assay to identify novel small-molecules to repurpose for Merkel cell carcinoma treatment (AID 1296009); settings: MCC and control cell lines, CellTiter-Glo viability, 72 h; series mostly up to 46 µM; further: nearly all actives have a fitted effect of over 60% in size
In short: (§4)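 Luminescence from CellTiter-Glo, read 10 min after addition at room temperature, reported viability following a 72 hr, 37 degree celsius treatment with NPC or MIPE compounds in titration; values normalized to plate controls.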

[16] = qHTS of pediatric cancer cell lines to identify multiple opportunities for drug repurposing: Primary screen for LAN-5 cells (AID 1347100)
In short: as §1

[17] = Quantitative High-Throughput drug screen in 47 multiple myeloma cell lines against the NCATS MIPE library collection: PCM6_Riken cell viability assay (AID 1919870); further: nearly all actives have a fitted effect of over 30% in size
In short: as §3

[18] = qHTS of pediatric cancer cell lines to identify multiple opportunities for drug repurposing: Primary screen for OHS-50 cells (AID 1347103); further: nearly all actives have a fitted effect of over 40% in size
In short: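 Cells (500-1,000/well) rested 5 h, then received compounds for 48 h; metabolically active cells were measured by CellTiter-Glo luminescence. Final concentrations spanned up to 46 µM (MIPE, 11-point) or 0.59 nM-46 µM (NPC, 8-point) in primary screens, 11-point in follow-ups.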

[19] = test system: MCC-13; assay: qHTS assay to identify novel small-molecules to repurpose for Merkel cell carcinoma treatment (AID 1296009); settings: MCC and control cell lines, CellTiter-Glo viability, 72 h; series mostly up to 46 µM; further: nearly all actives have a fitted effect of over 60% in size
In short: as §4

[20] = biological target: Calcium and integrin-binding protein 1 (Homo sapiens) (UniProt Q99828); assay: Primary qHTS for Identification of Calcium Integrin Binding Protein 1 (CIB1) Competitor (AID 1508620)
In short: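 Fluorescence polarization competition: CIB1-GST (1 uM final) preincubated with compound 15 min at room temperature, then FITC-labeled alphaIIb peptide (100 nM final) added for another 15 min. Polarization read at Ex 480/Em 540.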

Measured: Potency
Potency means the concentration at half of the fitted maximal effect; tags describe the fitted curve by direction and shape.

Chain of UniProt Q99828 (Q99828 whole entry, looked up): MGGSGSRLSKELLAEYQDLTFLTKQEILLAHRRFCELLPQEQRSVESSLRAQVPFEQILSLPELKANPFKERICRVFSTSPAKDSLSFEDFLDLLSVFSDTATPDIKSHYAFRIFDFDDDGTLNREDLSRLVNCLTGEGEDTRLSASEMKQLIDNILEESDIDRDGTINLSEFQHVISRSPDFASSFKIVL
Chain of UniProt P11712 (P11712 whole entry, looked up): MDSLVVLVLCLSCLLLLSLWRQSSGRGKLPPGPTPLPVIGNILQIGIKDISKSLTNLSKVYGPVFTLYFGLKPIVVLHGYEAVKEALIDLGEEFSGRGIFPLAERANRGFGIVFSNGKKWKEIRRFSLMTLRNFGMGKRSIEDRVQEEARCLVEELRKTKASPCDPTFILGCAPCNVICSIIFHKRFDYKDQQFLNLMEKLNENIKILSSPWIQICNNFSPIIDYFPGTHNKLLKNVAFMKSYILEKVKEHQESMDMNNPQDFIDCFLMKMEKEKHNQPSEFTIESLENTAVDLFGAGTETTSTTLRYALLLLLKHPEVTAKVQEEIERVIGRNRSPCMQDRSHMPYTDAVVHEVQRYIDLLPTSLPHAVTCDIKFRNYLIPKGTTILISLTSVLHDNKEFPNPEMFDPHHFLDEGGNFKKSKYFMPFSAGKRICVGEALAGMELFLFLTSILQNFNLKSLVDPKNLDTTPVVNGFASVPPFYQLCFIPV

CS(=O)(=O)N1CCc2c(-c3cnc(N)nc3)nc(N3CCOCC3)nc21
active: [1] 209 nM | [2] 37.2 nM | [3] 935 nM | [6] 148 nM | [8] 148 nM | [9] 209 nM
inconclusive: [4] 2080 nM [cytotoxic, full curve] | [5] 26800 nM [inhibitor, single point] | [7] 2640 nM [cytotoxic, partial curve] | [10] 662 nM [cytotoxic, full curve] | [11] 187 nM [cytotoxic, full curve] | [12] 187 nM [cytotoxic, full curve]

Cc1cc(Nc2ncc3c(n2)N(C)C(=O)N(c2cc(NC(=O)c4cccc(C(F)(F)F)c4)ccc2C)C3)n(C)n1
active: [2] 209 nM | [13] 743 nM | [9] 1320 nM | [14] 1320 nM
inconclusive: [4] 1470 nM [cytotoxic, full curve] | [8] 3320 nM [cytotoxic, full curve] | [10] 1050 nM [cytotoxic, full curve, poor fit] | [11] 1480 nM [cytotoxic, full curve] | [15] 16600 nM [inhibitor, partial curve]

CNC(=O)c1c(F)cccc1Nc1nc(Nc2cc3c(cc2OC)CCN3C(=O)CN(C)C)nc2[nH]ccc12
active: [16] 52.6 nM | [5] 425 nM | [6] 52.6 nM | [17] 9350 nM | [11] 2350 nM

CCOc1cc2c(c(F)c1OCC)C(=N)N(CC(=O)c1cc(N3CCOCC3)c(OC)c(C(C)(C)C)c1)C2
active: [3] 14800 nM | [18] 21700 nM | [6] 14800 nM | [9] 20900 nM | [17] 7430 nM
inconclusive: [16] 29600 nM [cytotoxic, single point] | [14] 29600 nM [cytotoxic, single point]

O=C(Nc1nc2cccc(-c3ccc(CN4CCS(=O)(=O)CC4)cc3)n2n1)C1CC1
active: [12] 14800 nM
inconclusive: [16] 4690 nM [cytotoxic, full curve] | [18] 27300 nM [cytotoxic, single point] | [6] 16600 nM [cytotoxic, partial curve, poor fit]

COc1cc2c(cc1O)CCC1C2CC[C@@]2(C)C1CC[C@@H]2O (stereo not given in full)
active: [3] 1050 nM | [18] 7690 nM | [10] 833 nM
inconclusive: [7] 2090 nM [cytotoxic, full curve] | [9] 3320 nM [cytotoxic, full curve] | [17] 1480 nM [cytotoxic, full curve] | [11] 1870 nM [cytotoxic, full curve] | [19] 9350 nM [inhibitor, full curve] | [15] 2350 nM [inhibitor, full curve]

CN1CCN(C2CCC(n3cc(-c4ccc(Oc5ccccc5)cc4)c4c(N)ncnc43)CC2)CC1 (stereo not given)
inconclusive: [20] 50100 nM [inhibitor, partial curve]

OC1(c2ccc(Cl)c(C(F)(F)F)c2)CCN(CCCC(c2ccc(F)cc2)c2ccc(F)cc2)CC1
active: [3] 11900 nM | [18] 3890 nM | [15] 5310 nM
inconclusive: [1] 29900 nM [cytotoxic, single point] | [16] 21100 nM [cytotoxic, single point] | [13] 29900 nM [cytotoxic, single point]
inactive: [20]

COC(=O)Nc1nc2ccc(C(=O)c3ccc(F)cc3)cc2[nH]1
active: [12] 332 nM
inconclusive: [4] 1040 nM [cytotoxic, full curve, poor fit] | [7] 743 nM [cytotoxic, full curve] | [14] 3720 nM [cytotoxic, partial curve, poor fit] | [19] 2640 nM [inhibitor, full curve] | [15] 235 nM [inhibitor, full curve]

From PubChem BioAssay (NCATS)
